From the antibiotic and cytotoxicity screens of Wong et al. (2023)
The list shows a part of the results.

These molecules were tested on S. aureus RN4220 (assay: growth inhibition call (relative growth <= 0.2)). Conditions: 50 µM.

Growth inhibition call, inactive:
NCC[C@H]1CC[C@H](NC(=O)C2CCCCC2)[C@@H](CO)O1
CC(C)NC(=O)Nc1ccc2c(c1)C(=O)N([C@@H](C)CO)C[C@@H](C)[C@@H](CN(C)C(=O)Nc1cccc3ccccc13)OCCCC[C@@H](C)O2
C[C@H]1CCCCO[C@H](CN(C)Cc2ccc(Cl)c(Cl)c2)[C@@H](C)CN([C@@H](C)CO)C(=O)c2cc(NC(=O)NC3CCCCC3)ccc2O1
COc1ccc([Si](C)(C)[C@@H]2[C@@H](CC(=O)N(CCO)Cc3ccccc3)O[C@]3(C(=O)N(Cc4cccc(N5CCCCC5=O)c4)c4ccccc43)[C@H]2C)cc1
C[C@@H]1CCCCO[C@@H](CN(C)C(=O)Nc2ccc(C(F)(F)F)cc2)[C@H](C)CN([C@@H](C)CO)C(=O)c2cc(NS(C)(=O)=O)ccc2O1
C[C@H](CO)N1C[C@H](C)[C@@H](CN(C)Cc2ccc(C(F)(F)F)cc2)OCCCC[C@H](C)Oc2ccc(NS(=O)(=O)c3cccs3)cc2C1=O
CO[C@@H]1CN(C)C(=O)c2ccc(NC(=O)c3cc(C)on3)cc2OC[C@@H](C)N(S(=O)(=O)c2ccccc2)C[C@H]1C
C[C@@H]1CCCCO[C@@H](CN(C)S(=O)(=O)c2ccccc2)[C@@H](C)CN([C@H](C)CO)C(=O)c2cc(NS(=O)(=O)c3ccc(Cl)cc3)ccc2O1
C[C@H](CO)N1C[C@H](C)[C@H](CN(C)Cc2ccc(C(F)(F)F)cc2)Oc2ccc(NC(=O)Cc3cn(C)c4ccccc34)cc2C1=O
NC(=S)N[C@H]1C[C@@H]2C=C[C@H]1C2
C[C@H](CO)N1C[C@H](C)[C@@H](CN(C)C(=O)CN(C)C)Oc2cc(C#CC(C)(C)O)ccc2S1(=O)=O
CN(C)CCOC(C)(c1ccccc1)c1ccccn1.O=C(O)CCC(=O)O (configuration not stated)
CCNC(=O)[C@@H]1CCCN1C(=O)[C@H](CCCN=C(N)N)NC(=O)[C@H](CC(C)C)NC(=O)[C@@H](COC(C)(C)C)NC(=O)[C@H](Cc1ccc(O)cc1)NC(=O)[C@H](CO)NC(=O)[C@H](Cc1c[nH]c2ccccc12)NC(=O)[C@H](Cc1c[nH]cn1)NC(=O)[C@@H]1CCC(=O)N1
C[C@@H]1CN([C@H](C)CO)C(=O)Cc2cc(NC(=O)Cn3cnnn3)ccc2O[C@@H]1CN(C)CC1CCCCC1
C[C@@H]1CN([C@@H](C)CO)C(=O)c2cc(NC(=O)Nc3ccccc3)ccc2O[C@@H]1CN(C)Cc1ccc(-c2ccccc2)cc1
Clc1ccc2ncccc2c1
C[C@H]1CN([C@@H](C)CO)C(=O)CCCn2nncc2CO[C@H]1CN(C)S(=O)(=O)c1ccc(-c2ccccc2)cc1
C[C@H](NC(=O)c1c(N)nn2cccnc12)c1cc2cccc(C#Cc3cnn(C)c3)c2c(=O)n1-c1ccccc1
C[C@@H]1CCCCO[C@H](CN(C)C(=O)Nc2ccc(C(F)(F)F)cc2)[C@H](C)CN([C@@H](C)CO)C(=O)c2cc(NS(C)(=O)=O)ccc2O1
C[C@H]1CN([C@@H](C)CO)C(=O)Cc2cc(NS(=O)(=O)c3ccccc3)ccc2O[C@@H]1CN(C)S(C)(=O)=O
COc1ccc(NC(=O)Nc2ccc3c(c2)CC(=O)N([C@H](C)CO)C[C@@H](C)[C@H](CN(C)S(C)(=O)=O)O3)cc1
C[C@H](CO)N1C[C@H](C)[C@H](CN(C)C(=O)NC2CCCCC2)OCCCC[C@H](C)Oc2ccc(NC(=O)Nc3ccc(C(F)(F)F)cc3)cc2C1=O
Cc1ccc(S(=O)(=O)N(C)C[C@@H]2OCCCC[C@@H](C)Oc3ccc(NC(=O)Nc4ccc5c(c4)OCO5)cc3C(=O)N([C@@H](C)CO)C[C@H]2C)cc1
CCS(=O)(=O)N1CC[C@]2(CC1)CN([C@@H](CO)c1[nH]c3cc(ccc3c12)OC)S(=O)(=O)c1cccc(c1)OC
C[C@H](CO)N1C[C@H](C)[C@@H](CN(C)S(=O)(=O)c2cccs2)Oc2ccc(NS(=O)(=O)c3ccccc3)cc2C1=O

Growth inhibition call, active:
C[C@H](CO)N1C[C@H](C)[C@H](CN(C)C(=O)Nc2ccc(C(F)(F)F)cc2)Oc2c(NC(=O)NC3CCCCC3)cccc2C1=O
CN1C(=O)[C@H]2[C@H](C1=O)[C@H]1C=C(c3ccc(CO)cc3)[C@@H]2[C@H](c2cccs2)N1Cc1cccc(OC(F)(F)F)c1
